Sequences with one replicate were seen in a single cluster, so their values are uncertain.
System: ATP
Test: switch fluorescence ratio, 500 uM ATP over buffer (Cy3 cluster intensity, sum of 5 cycles each) (fold (ratio)); higher = stronger signal-on switching upon ATP binding; sequences stand for … in TCGTCGGCAGCGTCAGATGTGTATAAGAGACAGTTTTTTTTTTTTTTTTTTTTTTTTT…TC
Conditions: aptamer strand: ATP DNA aptamer (quencher-CACCTGGGGGAGTATTGCGGAGGAAGG + anchor), 100 nM annealed; ATP concentration: 500 uM; one replicate
Procedure, shortened: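 Exposure to 500 uM ATP lasted 15 min at 22 °C before imaging, and a selection-buffer image was taken beforehand, for Cy3-labelled switching-strand clusters on a modified Illumina MiSeq flow-cell annealed to 100 nM quencher-labelled ATP aptamer. Five buffer/ATP cycles were run with NaOH stripping and re-annealing between them. The fluorescence ratio per cluster is summed target-cycle over summed buffer-cycle Cy3 intensity, averaged per switch-domain sequence. Clusters outside 100-1000 RFU were excluded.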

Sequence	switch fluorescence ratio
AACGGCAGTA	1.03
AGGACAGTAA	1.05
TCCCATCGTT	1.08
CGCGTATCGG	1.01
GCACGGAATC	1.56
TTGTGGAGTA	1
TGCAAGGGTA	1.01
TCGGCCATTA	0.985
TCTCTCGTGG	0.971
CTGGCAAGGC	1.17
GCTGGGCTCC	1.06
CCACTGGCGA	1.48
TGGTACGCTC	1.06
GGTCTCAGGA	0.974
TAGCCAGCGG	0.957
CGGGTGTTTC	0.993
AAGTACCTTA	1.19
ACTTAATCAT	0.992
TTTCCAGGGG	1.47
GGATGTCATA	1.04
GATATTTTCT	1.03
AGACGCGTTC	0.991
CATGTGAGTC	0.986
TAATTGGGG	0.984
ACGGGCAGAC	1.98
ACCAGATT	0.945

Sequence	switch fluorescence ratio
GTCTCTCCTG	1.02
TCACTACATT	1.08
TAAAAGTGTC	0.982
CCCATGAATG	0.991
GTAACCTGAG	1.91
AGCGATAGTG	1.07
CCGCTGGCAG	2.08
CGCGGGTGGG	1.01
AAGCTTAGTG	0.987
ATGTTGAAAT	0.992
CAACGCTGCC	2.01
CTCGTAGAGC	0.896
TGGGTCTTGT	1.01
TACCTTTCCG	1.07
CGCAGGTTGG	0.988
CAATCTTTG	0.964
AAGGCTGACA	0.969
ATTTGGAAAC	1.04
GGATATACCT	1.24
ATCCTCGCCG	1.01
ATATACAAAC	1.14
GCGGTATTTA	1.02
TGGCACCCCT	1.01
GGCTGGTACC	0.997
ATCGCTCCTT	1.06
CCTGCATCCC	2.82

Sequence	switch fluorescence ratio
GATATGAGGC	1.02
ATGCCGAAGC	1.1
GGTGCCCGCC	1.04
ACCAGGGAAG	1.03
TTGCGGGGAT	0.977
GACAACAGGT	1.36
GTGTCTGGCA	1.01
GGCATGCTCG	1.01
GACAACAGAA	1.04
TTGAAAAT	1.01
AATAGTCGGG	0.989
TGTTAGCGAT	1.04
TCCAGACTTT	1.05
AGAACACGTA	1.13
GAGAGGTAAA	0.994
GCATAAAACC	1.03
TACCGGCCTA	1.03
GGACGCGTAG	0.998
AAAATTCCTA	1.03
GAGCAATCGT	1.65
CTTTGAGGTA	0.991
ACGATTCAGG	1.43
ATGTTTAGG	1.13
TATAACCACG	1.08
TTGTATGCCG	1.04
TTGAACTTA	1.02

Sequence	switch fluorescence ratio
TCTTACTAAA	1.05
TATAAGGCG	1.02
ATAGTCACCC	1.07
ACGTGCGGCC	1.03
GTCATTGTGA	1.02
ATGCAACGTA	1.05
GCTGTACTTC	1.07
AATTAAAAGC	1.02
AATTTATTAT	0.978
GCAAGTCGGT	1.01
TTTTTCTCAC	1.03
ACAATCCACA	1.01
AGTTGTTGAG	0.985
GGGCACGCAC	1.59
GAAAGAGTGG	0.985
ACGACGGCA	1.46
GATCAACAAA	0.973
CATTCTCAGG	1.04
AATGGGGTAG	1.02
AATGAGAAT	1.02
GAGATTGTCA	0.977
GTTCCCATAA	0.976
CGATACGGTA	0.964
ACCGAGGGTA	1.05
TTACATGCAT	1.01
GATTGGATGG	0.97

Sequence	switch fluorescence ratio
CTTTTCGAC	1
TGATCTGTGC	0.979
CCCGGTCTAG	1.06
ACGTTGCACT	1.1
ACGTAATGTG	1.13
TCTTCGTGCA	1.06
GAACGCCTAG	1.01
ACCAAAACTA	1.02
GAACCTTCGG	1.05
GGCAGACTTT	1.08
ATTGTGAAG	1
CTTGCTTACT	1.11
GGACAATAGG	0.959
AAGAACTTT	0.968
AATGTCGTCC	0.992
GAGGCTTACC	0.953
ACAATAACGC	1.09
CGGGTATCGT	0.987
AGATTGCTGG	0.976
AATTGTCATC	0.982
CACAGGGGC	1.19
TTCCCATACG	1.19
TTCGGGCC	0.988
AACGTTTTGA	1.02
GGAGATAAGA	1.01
TAGGAGATTA	1.01

Sequence	switch fluorescence ratio
CTCATAAAGA	0.998
TCAATACTGG	1.09
CCGGTCTGAG	1
ACTTTATTT	1
GGTTAAAAGA	1.03
TGCGTTCCCA	1.03
ATCCTGTGAC	1.2
ATTTACTTAT	1.14
AGTTACCGAT	1.05
CGGTCCTGA	1
GTCAACTTTC	1.08
AACCGAGCTT	1.15
GAGGAGTCCT	1
TTTCCGGAAA	0.976
TCCGCCTTCT	1.03
AGTCCATCGC	1.04
CAACTGAGGC	1.01
GTGATAACTC	1.15
CTGTTTGCAT	1.09
ATATGGGC	1.01
GGTATGGGAA	0.941
ATTGCCTCAG	0.991
CTACGTAGCC	1.2
AAGGAGTGG	0.956
GGGCAGTTAC	1.7
TAGGCTATCT	1.09

Sequence	switch fluorescence ratio
ACGGATGAAT	1.08
TATATAGTGT	0.953
GTTATTTATC	1.01
TATTTCATT	0.98
ATTTGGAGCG	1.04
TAAGGTTAGT	1.01
GCCGGATGGG	1.1
TCAGCTAG	1.22
CCTGTTGAG	1
TGAAGAGCTA	1.02
GCAGACAGGC	0.991
GATAGTTGGC	1.12
GGAGGGCGTT	0.976
TTTTGTGAA	1
CTCGATAGAC	1.8
TTACGACCTG	1.02
AGGTGTTGGC	1
AGTGTAGGAC	0.986
GTTGTAGTT	0.989
TGCGTCTAGG	0.982
GGATTTTGAA	0.948
AAGTATGACA	0.981
AGAGTTTCTG	1
TATAAGAAGG	0.979
CTTGATAAAG	0.997
ACTATTGACT	1.06

Sequence	switch fluorescence ratio
TAAGTTTATG	0.95
TTATATT	0.984
CTTTGCCGTC	0.979
ATTCCGCCGT	1.14
CTTTGAGGAA	0.994
CCTGTCTCAA	1.49
GCAAACCAGG	2
ATGGCGCATT	1.03
CTGGCGGCAG	1.02
AAACATTAGT	1.01
TCAGTAGTTT	0.985
ACGCCATGTC	1.23
GGTCAAGGCG	1
GGATCATGGG	0.926
CGGTACGGAA	0.988
GGCGTCCTT	0.982
TGGATATCCA	1.02
AATCAAGGTA	0.989
TAACTCGTCC	0.974

Reference: the supplement of paper PMC10126150
